Measured values reported in the RNAGym collection of RNA variant scans (doi:10.7554/elife.90254).
The source gives no read counts; variants with many changes may rest on few reads.

B1: LINE1-mini (parent)
chain: GGCAGAGCUCAACACAGCGUGGCAAAGUGGCUGUGGCUAGACUGCC

Variants of: B1
Test: self-cleavage, relative activity (ratio to wild type); higher = more cleavage; in vitro, sequencing; the parent is a self-cleaving ribozyme

Row | Variant | self-cleavage
1 | GGCAGAGCUCAACACAUCGUGGCAAAGUGCAUGUGGCUAGACUGCC | 0.35
2 | GUCAGAGCUCAACCCAGCGUGCCAAAGUGGCUGUGGCUAGACUGCC | 0.04
3 | GGCAUCGCUCAACACAGCGUGGCAAAGUGGCUGUUGCUACACUGCC | 0.09
4 | GGCAGAGCUCAACACUGCGCGGCAAUGUGGCUGUGGCUUGACUGCC | 0.35
5 | GUCAGAGCUCAACACAUCGUGGCAAAGUGGGUGUGGCUAGACUGCC | 0.08
6 | GGGCGAGCUCAACGUAGCGUGGCAAAGUGGCUGUGGCUAGACUACC | 0.14
7 | GGAAGCCCUCAACACAGCGUGGGAAAGUGGCUGUGGCUAGACUGCC | 0.19
8 | GGCAGAGCUCAACACAGCGUGCAUAAGUGGCUGUGGCUAGACUGCC | 0.39
9 | GGCACAGCUAAACACAGCGUAGCAAAGUGGCUGUGGCUAGACUGCG | 0.02
10 | GGCAGAGCUCAACACAGCGUGCCAAAGUGGUUGUGGUUAGACUGCC | 0.12
11 | GGCAGAGCUAAACACAGCGUGGGAAAGUGGCUGUGGCUAGACUGCU | 0.02
12 | GGCAGAGCUCAACGCAGCUUGGCAAAGUGGCUGUGGCUAGACUCCC | 0.12
13 | GGCAGGGCUCAACAUAGCGUGGCAAAGUGGCUGUGGCUAGGCUGCC | 0.05
14 | GGCAGAGAUCAACACAGCGUGGCCAAGUGGCUGUGGCUAGAAUGCC | 0.18
15 | GGCAGAGCUCAACACAGCGUGGCAAAGUGGCUGUGGUUAGACUGGA | 0.08
16 | GGCAGAACUCAACACAGCGUGGCACAGUGGCUGAGGCUAGACUGCC | 0.02
17 | GUCAGAGCUCAACGCAGCGUGGCAAAGUGGCUGUGGCUCGACUGCC | 0.02
18 | GGCAGAGCUCAACACAGCGUGGCAAAGUGGCUAUGACUAGUCUGCC | 0.21
19 | GGCAGAGCCCAAAACAGCGUGGCAAAGUGGCUGUUGCUAGACUGCC | 0.03

Row | Variant | self-cleavage
20 | GGCAGAGCUCAACACAGCGUGGCAAACUGGUUGUGGCUAGCCUGCU | 0.03
21 | UGCAGAGCUCAACACAGCGUGGCUAAGUGGCUGUGGCUAUACUGCC | 0.03
22 | GGCAGAGCUCAACACAACGCGGCAAAGUGGCUGUGGUUAGACUGCC | 0.02
23 | GGCAGAGCUCCACACCGCGUGGCAAAGUCGCUGUGGGUAGACCGCC | 0
24 | GGCAGAGCUCAACACAGCGUGGCAAAGUAGCUGUUGCUAGACAGCC | 0.03
25 | GGCAUAGCUCUACACAGCGUGGCAAAGUGGCUGUGGCUAGAUUGCC | 0.03
26 | GGCAGAGCUCAACACAGUGAGGCAAAGUGGCUGUGGCUAGGCUGCC | 0.34
27 | GGCAGAGCUCAACACAGCGCGACAAAGUGGCUGUCGCUAGACUGCC | 0.06
28 | GGCAGAGCUGAACACAGCGUGGCAAAGUGACUGUGGCUAGACUCCC | 0.03
29 | GGCAGAACUCAACACAGCGAGGCAAAUUGACUGUGUCUAGACUGCC | 0.07
30 | AGCAGCGCUCAACACAGCUUGGCAAAGUGGCUGUGGCUAGACUGCC | 0.17
31 | UGCAGAGCUUAACACCGCGUGGCAAAGUGGCUGUGGCUAUACUGCC | 0.01
32 | GGCAGAGCUAAACACAGCGUGACAAAGCGGCUGUGGCUAGACUGCC | 0.04
33 | GGCAGAGCUCAACACAGCGUGGCUAAGUGGCUGUGGCUAGACUAAC | 0.03
34 | GUCAGAGCUCAACACAGCGAGGCAAAGUGGCUGUGGCUAGACUGCG | 0.02
35 | GGGAGAGCGCAACACAGCGUGGCAAAGUGGCUGUGGCUAGGCUGCC | 0.09
36 | GGCAUAGCUCAACACAGCGUGGCAAAGUGGCUGUGGCUAUACUGCG | 0.05
37 | GUCAAAGCUCGACACAGCGUGGCAAAGUGGCUGUGGCUAGACUGAC | 0.01
38 | GGCAGAGCUCAACAAAGCGUGGUAAAGUGGCUCUGGCUAGACUGCC | 0.17

Row | Variant | self-cleavage
39 | GGCAGAGCUCAACACAGCGUGUCAAACUGGCUGUGGCUAGACUUCC | 0.25
40 | GGCACAGCUGAACACAGCGUGGCAAAGUGGCUGUGGCUAGACUGUA | 0.02
41 | GACAGAGCUCAACACAGCGUAGCAAAGUGGCUGUAGCUUGACUGCC | 0.28
42 | UGUAGAGCUCAACACAGCGUGGCAAAGUGGCUGUGGCUAAACUGCC | 0.18
43 | UGCAGAUCUCAACACAGCGUGGCGAAGUGGCUGUGGCUAGACUGCC | 0
44 | UCCAGAGCUCAACAUAGCGUGGCAGAGUGGCUGUGGCUAGACUGCC | 0.02
45 | GGCAAUGCUCAAUACAGCGUCGCAAAGUGGCUGUGGCUAGACUGCC | 0.15
46 | GGCAGAGCCCAACACAGCGUGGAAGAGUGGUUGUGGCUCGACUGCC | 0.01
47 | GGCAGAACUCGACACAGCGUGCCAAAGUGGCUGUGGCUAGACUGCC | 0.01
48 | GGCGGAGCUCAACACAUCGUGGCAAAGUUGCUGCGGCUAGACUGCC | 0
49 | GGCAGAACUCAACACAGUGUGGCAAAGUGGCUGUGGCCAGAGUGCC | 0.02
50 | GGCAGAGCUCAACACAGCGUGGCAAUUUGGCUGUGGCUAUACUGCC | 0.13
51 | GGGAGAGCUCAACAUAGCGUGGCAAAGUGGAUGUGGCUAGACUGCC | 0.19
52 | GGCAGAGCCCAACACAGCGUGGCAAAGUUGCUGUGGCUAGACUGCA | 0.04
53 | GGUAGAGCUCAACACAGCGUGGCAAAGUGGCUGUGGCUAGAUUGCU | 0.09
54 | GGCAGAGCUCAUCACAGCGUGACAAAGUGGCUGUGUCUAGACUGCC | 0.24
55 | AGCAGAGCUCCACACAGCGUGGCAAAGUGGCUUUGGCUAGACUGCC | 0.02
56 | GGCAUAGCUAAACACAGCGUGGCAAAGUGGCUGUGGCUACACUGCC | 0.02
